Assay results as given in the supplement of paper PMC3334620.
The full ranking holds about 33,000 sequences; the median of “E-score (-0.5 to 0.5)” is about -0.054, and the highest 2% start at about 0.39. This is one part of the list.

The sequences below were run against Ylr278c (UniProt Q05854) (assay: PBM E-score (8-mer binding enrichment) (E-score (-0.5 to 0.5)); higher = stronger / more preferred TF binding; most listed sequences are background and not binding sites). Conditions: protein concentration: 200 nM; construct: GST-DNA-binding domain.
Outline: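 GST-tagged yeast TFs (full-length or DNA-binding domain) were made by PURExpress in vitro transcription/translation and applied at about 100-200 nM to universal all-10-mer Agilent arrays. The arrays were made double-stranded by primer extension, on fresh or once-stripped slides. Bound protein was detected with fluorescent anti-GST, and scans were normalised with masliner. Each ungapped eight-base word, pooled with its reverse complement, received an E-score (modified Wilcoxon-Mann-Whitney statistic) from the Universal PBM Analysis Suite.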

| Sequence | PBM E-score |
| --- | --- |
| AGTCGGCG | 0.215 |
| GAAGTTTA | 0.121 |
| ACTCGTGC | -0.124 |
| GAGGGATC | 0.00739 |
| CCCAACGA | -0.0549 |
| ACCTTAGT | -0.172 |
| GACGACTC | -0.0544 |
| TAAGCAGA | -0.0723 |
| CCAACGCA | -0.0713 |
| AGGACTCA | -0.301 |
| AACCTGAC | -0.185 |
| AGACCTCA | -0.32 |
| ATGGCTCA | -0.345 |
| AATGTCCT | -0.061 |
| AGGTACTC | -0.113 |
| ACCTGCGG | 0.267 |
| CGCATGCC | 0.222 |
| CACGATCA | -0.157 |
| AGCTGAAA | 0.107 |
| GTAGGCCA | -0.115 |
| AGATGCTC | 0.0796 |
| CAGTGGCG | 0.0163 |
| ACGTGTTG | -0.138 |
| CGTCCCAG | -0.155 |
| CGACATAA | -0.0327 |

| Sequence | PBM E-score |
| --- | --- |
| ACCGATGG | 0.0792 |
| AGCTATAC | -0.0817 |
| GAAGTTGC | -0.0868 |
| CTCGCAGC | -0.0523 |
| AGTTTTAG | -0.0243 |
| GTTACTTA | -0.00147 |
| GCGCCCGA | 0.191 |
| AAGACGCA | -0.074 |
| TAGCGACA | -0.19 |
| CACCAGAG | -0.294 |
| AAATAAGG | 0.0102 |
| AGCTCCAC | -0.0221 |
| AGGAAGAC | -0.357 |
| ACACGATG | -0.234 |
| GGTATAAC | -0.157 |
| ACGCCTCA | -0.312 |
| ATCGGCGC | 0.326 |
| GCATTAAC | 0.126 |
| TCGGGGCA | 0.239 |
| TCATCGGA | 0.408 |
| GTGCTTAA | -0.104 |
| CCAGAAGG | -0.156 |
| ACATTTTC | 0.0708 |
| GACCTCCC | -0.0871 |
| TAGGATAA | -0.0758 |

| Sequence | PBM E-score |
| --- | --- |
| CGCTAACC | 0.102 |
| ATCGTCAC | -0.152 |
| GGACATGA | 0.3 |
| ATCCTAAA | -0.265 |
| ACAACTAA | -0.0852 |
| GCAAGTCA | -0.0449 |
| ACTGACAA | -0.187 |
| ACCTAATA | -0.0973 |
| GTGACATA | -0.0799 |
| CTCCAGAG | -0.0382 |
| CCTCCTAG | -0.162 |
| AGGACTGG | -0.199 |
| AATTCAAA | -0.0352 |
| ACCAAGGG | -0.236 |
| GGGTGTAA | -0.00564 |
| AGGGTGCC | -0.211 |
| GGTCGCGA | 0.119 |
| ATAGTCAA | -0.232 |
| CACAAAGG | -0.106 |
| AGCAGACA | -0.248 |
| ACGGACAT | 0.392 |
| CCACAGCC | -0.1 |
| CCCAGTCC | -0.0128 |
| CCCACTGA | -0.155 |
| CACGGAAA | 0.328 |

| Sequence | PBM E-score |
| --- | --- |
| ATCACAAT | -0.0164 |
| TAGATGGA | -0.28 |
| GAGTCCGC | 0.363 |
| GGACGCAC | 0.0423 |
| GTAGAATA | -0.106 |
| TCCACGCA | -0.041 |
| ACGTGACG | -0.0621 |
| CTAGCAAC | 0.0469 |
| CAGCTCGG | 0.119 |
| ACACGAAT | -0.00148 |
| GTATCGGA | 0.431 |
| AAGCCAGA | -0.0477 |
| AACCTAAT | -0.115 |
| ACTACCGA | 0.161 |
| ATTCCGCG | 0.439 |
| AATATGAA | 0.0372 |
| CTGCCTGA | -0.149 |
| ATCGTTGA | -0.0349 |
| AGCATTAG | -0.142 |
| ATCGTCAA | -0.074 |
| CACCTTAG | 0.015 |
| CTCTCTGC | -0.0297 |
| ACCCACGT | -0.231 |
| AAACGGTA | 0.0233 |
| ACATTTAT | -0.143 |

| Sequence | PBM E-score |
| --- | --- |
| GCTCTTTA | -0.0532 |
| ACGGACTC | 0.304 |
| GCAACCCC | 0.187 |
| ACTGAGAA | -0.186 |
| ATGACGAG | -0.153 |
| ATAAATGG | -0.0989 |
| CGGGATTA | 0.406 |
| GAATAGTA | -0.0594 |
| CGTATCCA | -0.178 |
| AGTAAATC | 0.0481 |
| GGATAAGA | 0.00581 |
| AACACGCC | 0.137 |
| GAAATGTC | 0.116 |
| AAGATTGA | -0.166 |
| CACTCCCG | 0.193 |
| CGGACAAG | 0.383 |
| CTAAGAAG | -0.0922 |
| CAAACCCA | -0.0996 |
| GAGCGACC | -0.108 |
| AATTATCC | 0.0902 |
| ACATGGTA | -0.0615 |
| ATCAAAGG | -0.146 |
| ATGAGACC | -0.188 |
| CAAGGGCA | -0.252 |
| ACGCCATC | -0.0617 |

| Sequence | PBM E-score |
| --- | --- |
| CCACCGAA | -0.0526 |
| ATTCATGA | -0.193 |
| ATGGCCAA | -0.09 |
| GTGTAATA | 0.0208 |
| GCGGGCCA | 0.0635 |
| TACATTAA | -0.0987 |
| AGATTTAG | -0.0161 |
| CTCTTGTC | -0.064 |
| TACTGGGA | -0.0573 |
| TGTGTTAA | -0.173 |
| AGCGAGGG | -0.251 |
| AGTGCGAC | 0.0241 |
| CGAAAGAA | 0.0687 |
| ACCCGAGG | -0.122 |
| CCATTATA | -0.00996 |
| ATGGTTTA | 0.0306 |
| CTCGTTGC | -0.0897 |
| GTACAACA | 0.014 |
| GTACACAA | -0.083 |
| CTATGACA | -0.237 |
| GCAGGAAC | -0.047 |
| ATACATGC | -0.165 |
| CGCGTTCA | 0.115 |
| CATGCCGG | 0.368 |
| CGTCTTGA | 0.0236 |

| Sequence | PBM E-score |
| --- | --- |
| AACAGAAA | -0.134 |
| ACGATGGC | -0.144 |
| CGAGCCTC | -0.0862 |
| CCGCAGGA | 0.141 |
| ACGCCTCT | -0.319 |
| CGCCGATA | 0.37 |
| ACCGAAGC | 0.0369 |
| ATCGCGCG | 0.243 |
| ACGAAGGC | -0.151 |
| AGGCGACC | -0.0726 |
| GATCATCA | -0.231 |
| ACAGAAGT | -0.269 |
| ATCGATCA | -0.00795 |
| TCACCTGA | -0.193 |
| GCCAGCCC | -0.141 |
| CCATGGAC | -0.0535 |
| CCGTAAAC | 0.163 |
| ATGTGGGA | -0.101 |
| AATTTGCG | 0.127 |
| GCTGTACA | -0.114 |
| GAACATTC | 0.0882 |
| CTTGACAA | -0.0658 |
